The campaign covered roughly 200,000 compounds. About 4,500 (2.2%) were called active. This list was built around the results that the source calls inconclusive (neither active nor inactive); the mix of calls is not that of the screen. Calls follow the shape of the dose curve; as a rule, active = well fitted inhibition curve with a large enough effect; inconclusive = small, poorly fitted or top-dose-only effect, or effect the other way; inactive = flat fitted curve, though single readings scatter. A potency beside an inconclusive call is a rough fit, not a confirmed value.
molecular target: Cruzipain (Trypanosoma cruzi) (UniProt P25779); assay: qHTS Assay for Promiscuous and Specific Inhibitors of Cruzain (without detergent); conditions: purified cruzain, Z-FR-AMC fluorescence, no detergent; also: nearly all actives have a fitted effect of over 40% in size;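 as to max response, negative = inhibition: plate controls were enzyme without inhibitor for no effect and buffer without enzyme for full effect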
Method in brief: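 Detergent-free condition (0.00005% Triton X-100) in acetate buffer pH 5.5 with DTT. 1.5 nM enzyme and compound were pre-mixed 15 min, then 2 uM Z-FR-AMC substrate added; reaction progress from fluorescence change between first and third reads (60 s).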
Potency is read from the fitted curve at half-maximal effect; tags tell the direction and shape of the fitted curve.

UniProt P25779, sequence (P25779 whole entry, looked up): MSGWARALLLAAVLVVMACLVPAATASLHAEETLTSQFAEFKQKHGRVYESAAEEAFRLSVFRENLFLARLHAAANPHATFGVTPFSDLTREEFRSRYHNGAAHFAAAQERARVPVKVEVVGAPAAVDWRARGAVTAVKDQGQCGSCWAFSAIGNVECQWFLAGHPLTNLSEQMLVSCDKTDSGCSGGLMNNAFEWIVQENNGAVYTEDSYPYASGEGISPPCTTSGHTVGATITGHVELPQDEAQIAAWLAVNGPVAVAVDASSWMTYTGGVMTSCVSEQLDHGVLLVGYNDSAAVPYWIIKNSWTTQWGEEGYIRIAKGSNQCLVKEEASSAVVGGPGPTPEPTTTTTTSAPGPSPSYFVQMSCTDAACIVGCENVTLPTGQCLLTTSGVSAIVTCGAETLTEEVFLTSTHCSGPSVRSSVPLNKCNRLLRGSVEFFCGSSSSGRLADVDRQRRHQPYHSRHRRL

SMILES | Potency | max response, negative = inhibition
CCCCN(CCCC)C(=O)CN(C)S(=O)(=O)c1ccc2c(c1)c(=O)n(C)c(=O)n2C | inconclusive: 31.6 µM [activator, single point] | 
COc1c(OC(C)=O)ccc(/C=C/c2ccc3ccccc3n2)c1[N+](=O)[O-] | inconclusive: 39.8 µM [activator, single point] | 
COc1cc(/C=N/NC(=O)c2cccnc2)ccc1OS(=O)(=O)c1ccc(F)cc1 | inconclusive: 39.8 µM [activator, single point] | 
CC(C)Oc1ccc(CC(=O)NNC(=S)Nc2ccc(Br)cc2)cc1 | inconclusive: 31.6 µM [inhibitor, single point] | 
Cc1ccc(/C=N/N2CCN(Cc3cccc4ccccc34)CC2)s1 | active: 10 µM | 
C=C(C)CSc1nc(N)c2c(C)c(C)sc2n1 | inconclusive: 31.6 µM [inhibitor, single point] | 
Cc1ccccc1N1C(=O)CC1(C#N)c1ccc(OCc2ccccc2)cc1 (stereo not drawn) | inconclusive: 15.8 µM [inhibitor, single point] | 
Cc1ccccc1-c1ncnn1-c1sc2c(c1C#N)CCCCC2 |  | inactive: 2.88%
COCc1cc(CN2CCCC2)c(O)c2ncccc12 | inconclusive: 39.8 µM [activator, single point] | 
O=C(NCc1cccs1)c1ccc2c(c1)N(Cc1ccccc1Cl)C(=O)c1ccccc1S2 | inconclusive: 39.8 µM [inhibitor, single point] | 
Cc1ccc2nc(NC3=NCN(CCc4ccccc4)CN3)nc(C)c2c1 | inconclusive: 31.6 µM [inhibitor, single point] | 
CC(=O)N[C@@H](C=O)[C@@H](O)[C@H](O)[C@H](O)CO |  | inactive: -7.23%
Cc1ccc(NC2=CC(c3ccccc3F)N(c3ccc(C)cc3)C2=O)cc1 (stereo not drawn) | inconclusive: 31.6 µM [inhibitor, single point] | 
Cn1c(=O)c2c(nc(NCC3CCCO3)n2Cc2cccc(Br)c2)n(C)c1=O (stereo not drawn) |  | inactive: -4.65%
O=C(CN(c1ccc2c(c1)OCCO2)S(=O)(=O)c1ccccc1)Nc1ccc2c(c1)OCO2 | active: 12.6 µM | 
COc1ccc(NC(=O)Cn2c(=O)n(-c3ccccc3)c(=O)c3c4c(sc32)CCCC4)cc1 |  | inactive: 3.29%
CCCCC/C=C\C/C=C\C/C=C\C/C=C\CCCC(=O)C(F)(F)F |  | inactive: 12.4%
O=C1CC(SCc2nc3ccccc3[nH]2)C(=O)N1c1cccc(F)c1 (stereo not drawn) | inconclusive: 10 µM [inhibitor, partial curve, poor fit] | 
CN(c1ccccc1)S(=O)(=O)c1ccc(NC(=O)c2ccc(-c3ccccc3)cc2)cc1 | active: 25.1 µM | 
CCOc1ccc(NC(=O)c2cn(-c3ccc(OCC)cc3)c(=O)c3cc(OC)c(OC)cc23)cc1 | inconclusive: 20 µM [activator, partial curve] | 
O=C(Nc1nnc(C2CC2)s1)c1cc2c(s1)CCCCCC2 | active: 6.31 µM | 

SMILES | Potency | max response, negative = inhibition
Nc1cc(=O)[nH]c(SCC(=O)Nc2ccc(Cl)c(Cl)c2)n1 |  | inactive: -0.829%
CC(C1CC2CCC1C2)n1c(COc2ccccc2F)nnc1SCC(N)=O (stereo not drawn) | inconclusive: 31.6 µM [activator, single point] | 
Cc1ccc(-n2nc3c(N4CCC(C(=O)N5CCCCC5)CC4)nnc(C)c3c2C)cc1 |  | inactive: -5.39%
COc1ccc(-c2nc3c4c(ncn3n2)-c2ccccc2CC42CCCC2)cc1 | inconclusive: 7.94 µM [inhibitor, full curve, poor fit] | 
N#Cc1ccc(C2=NC(C(F)(F)F)(C(F)(F)F)c3c(n(Cc4ccco4)c(=O)[nH]c3=O)N2)cc1 | inconclusive: 39.8 µM [inhibitor, single point] | 
CCOc1ccc(NC(=O)CN2CCN(CC(=O)Nc3ccc(Cl)c(C(F)(F)F)c3)CC2)cc1 | inconclusive: 25.1 µM [activator, single point] | 
Cc1ccc(CN(C(=O)CNC(=O)c2cccs2)C(C(=O)NCC2CCCO2)c2ccccc2)cc1 (stereo not drawn) | inconclusive: 31.6 µM [activator, single point] | 
CCn1c(CNC(=O)COc2ccc(C(C)C)cc2)nnc1SCC(=O)Nc1ccccc1F | inconclusive: 25.1 µM [activator, single point] | 
O=C(OCn1nnc2ccccc2c1=O)c1ccc(N2CCOCC2)c([N+](=O)[O-])c1 | inconclusive: 39.8 µM [activator, single point] | 
Cc1ccc(S(=O)(=O)N2CCC(=O)N(C(COCc3ccccc3)C(C)C)CC2)cc1 (stereo not drawn) | inconclusive: 39.8 µM [activator, single point] | 
CC(=O)Nc1ccc(S(=O)(=O)Nc2cccc(-c3ccc(N4CCC(C)CC4)nn3)c2)cc1 |  | inactive: 11.5%
COCCNC(=O)c1ccc2c(c1)N(Cc1cccc(Cl)c1)C(=O)c1ccccc1S2(=O)=O |  | inactive: 9.95%
COc1ccccc1Oc1nc2c(c(=O)n(C)c(=O)n2C)n1Cc1cccc(Br)c1 | inconclusive: 20 µM [activator, single point] | 
COc1ccc2nc(NC(=O)CSc3nc(SC)ns3)sc2c1 | inconclusive: 39.8 µM [inhibitor, single point] | 
CN1C(=O)Cc2cc(S(=O)(=O)CCC(=O)Nc3cccc(C(F)(F)F)c3)ccc21 |  | inactive: 6.34%
COC(=O)CN1C(=O)Nc2ccc(Br)cc2C1c1ccccc1Cl (stereo not drawn) | inconclusive: 15.8 µM [activator, single point] | 
COc1cc(/C=C/C(=O)c2ccc(NS(=O)(=O)c3ccc(C)cc3)cc2)cc(OC)c1O | inconclusive: 31.6 µM [inhibitor, single point] | 
CCOc1ccc(CCNC(=O)CCCc2nnc3n(CC(C)C)c(=O)c4sccc4n23)cc1 |  | inactive: 5.15%
CCOC(=O)C1CCN(c2nc3ccccc3nc2C(C#N)C(=O)OCCOC)CC1 (stereo not drawn) | inconclusive: 39.8 µM [activator, single point] | 
COc1ccc(CCn2cc3c(c2-c2ccccc2Br)c(=O)n(C)c(=O)n3C)cc1OC | inconclusive: 39.8 µM [activator, single point] | 
CCNc1ncc2nc(-c3ccccc3)c(=O)n(C[C@H]3CCCO3)c2n1 | inconclusive: 2 µM [activator, full curve] | 

SMILES | Potency | max response, negative = inhibition
Cc1cc(C)c(C(=O)CSc2nc(C)cc(C)c2C(N)=O)c(C)c1 | inconclusive: 31.6 µM [inhibitor, single point] | 
Cc1cccc(N2CCN(S(=O)(=O)c3cc(Br)cc4c3N(C(=O)C3CC3)CC4)CC2C)c1 (stereo not drawn) |  | inactive: 3.67%
COc1cccc(-c2nc(SCC(=O)Nc3ccc4c(c3)OCO4)c(-c3ccccc3)[nH]2)c1 | inconclusive: 31.6 µM [inhibitor, single point] | 
CN(C)S(=O)(=O)N(CC(=O)NCCSCc1ccccc1Cl)c1ccccc1 | inconclusive: 39.8 µM [activator, single point] | 
CCc1ccc(S(=O)(=O)c2nnn3c2nc(NCCc2ccccc2)c2sccc23)cc1 | inconclusive: 39.8 µM [inhibitor, single point] | 
Cc1ccc(-c2csc(N(Cc3ccccc3)C(=O)COc3ccccc3)n2)cc1 | active: 7.94 µM | 
Cc1cc(NC(=O)N2CC=C(c3c[nH]c4ccccc34)CC2)ccc1Br | inconclusive: 25.1 µM [inhibitor, single point] | 
COc1ccc(S(=O)(=O)N(CCc2ccccc2)CC(=O)N/N=C/c2ccc3c(c2)OCO3)cc1 | inconclusive: 31.6 µM [inhibitor, single point] | 
Cc1ccc(NC(=O)c2cc(NC(=O)CCCC(=O)O)ccc2Cl)cc1Cl | inconclusive: 39.8 µM [activator, single point] | 
CCn1c(=O)cc(SCC(=O)Nc2cc(OC)c(OC)c(OC)c2)c2ccccc21 | inconclusive: 31.6 µM [activator, single point] | 
Nc1ncnc2c1ncn2C1CCCO1 (stereo not drawn) | inconclusive: 3.98 µM [activator, single point] | 
CC1(C)Nc2ccc(O)cc2-c2c1ssc2=S | inconclusive: 25.1 µM [inhibitor, single point] | 
O=S(=O)(Nc1ccc(-c2csc(-c3ccccc3)n2)cc1)c1ccccc1 | inconclusive: 31.6 µM [inhibitor, single point] | 
COc1ccccc1NC(=O)C1=C(C)Nc2c(C(=O)Nc3ccc(F)cc3)cnn2C1c1ccc(Cl)cc1 (stereo not drawn) | inconclusive: 39.8 µM [inhibitor, single point] | 
CC(C)C[C@H](NC(=O)OC(C)(C)C)C(=O)N1CCC(C(=O)N[C@@H](Cc2ccccc2)C(=O)O)CC1 | inconclusive: 25.1 µM [activator, partial curve] | 
COc1ccc(-c2cc(Nc3ccccc3NC(=O)C(F)(F)F)n(CCC#N)n2)cc1 | inconclusive: 0.126 µM [activator, single point] | 
NC(=O)COC(=O)c1ccc(Cl)c(S(=O)(=O)N(Cc2ccccc2)c2ccc(Cl)cc2)c1 | inconclusive: 31.6 µM [activator, single point] | 
CCOc1ccc(S(=O)(=O)Nc2ccccn2)c2ccccc12 | inconclusive: 39.8 µM [inhibitor, single point] | 
O=C(NCCN1C(=O)S/C(=C\c2ccc(OC(F)F)cc2)C1=O)[C@@H]1CCCN1C(=O)c1cccs1 | inconclusive: 31.6 µM [activator, single point] | 
Cc1cc(C)c(NC(=O)Cn2nc3c(cc2=O)CCCC3)c(C)c1 |  | inactive: 4.32%
COc1ccc2[nH]c(=O)c(COC(=O)c3ccco3)cc2c1 | inconclusive: 39.8 µM [inhibitor, single point] | 

From PubChem BioAssay AID1476 (National Center for Advancing Translational Sciences (NCATS), 2009)
